{
  "source": "PubChem BioAssay AID2147",
  "about": "(National Center for Advancing Translational Sciences (NCATS), 2009)",
  "note": "About 3,600 (1.6%) of roughly 230,000 compounds were called active. Inconclusive results, whose numbers are uncertain, are shown with a selection of clear calls. Calls follow the shape of the dose curve; as a rule, active = well fitted inhibition curve with a large enough effect (not every such curve was filed as active); inconclusive = small, poorly fitted or top-dose-only effect, or another doubt; inactive = no such curve, though single readings can be large or run the other way. Potencies beside an inconclusive call are fits to weak or partial responses and may not hold up. Also: nearly all actives have a fitted effect of over 50% in size.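 For activity change, negative = inhibition in this document: 0% = wells with enzyme and -100% = buffer wells without enzyme.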 Potency is read from the fitted curve at half-maximal effect; tags tell the direction and shape of the fitted curve.",
  "data": [
    {"biological_target": "Lysine-specific demethylase 4E (Homo sapiens) (UniProt B2RXH2)", "sequence (B2RXH2 whole entry, looked up, the tested form may be a part)": "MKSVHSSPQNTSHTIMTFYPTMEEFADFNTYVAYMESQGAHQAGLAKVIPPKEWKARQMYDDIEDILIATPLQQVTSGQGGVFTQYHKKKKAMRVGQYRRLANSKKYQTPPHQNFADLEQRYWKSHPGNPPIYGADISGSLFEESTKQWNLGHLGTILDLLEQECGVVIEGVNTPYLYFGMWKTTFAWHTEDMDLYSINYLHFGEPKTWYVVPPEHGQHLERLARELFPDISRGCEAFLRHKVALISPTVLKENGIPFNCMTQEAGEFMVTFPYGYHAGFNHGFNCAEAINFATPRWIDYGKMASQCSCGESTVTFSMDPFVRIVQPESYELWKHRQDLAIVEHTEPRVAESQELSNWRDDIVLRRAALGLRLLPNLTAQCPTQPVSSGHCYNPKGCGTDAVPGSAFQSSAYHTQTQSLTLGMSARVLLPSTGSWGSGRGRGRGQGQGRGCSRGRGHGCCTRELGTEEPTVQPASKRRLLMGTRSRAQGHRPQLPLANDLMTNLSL", "assay": "qHTS Assay for Inhibitors of Human Jumonji Domain Containing 2E (JMJD2E)", "details": "JMJD2E catalytic domain, FDH-coupled NADH fluorescence (FDH is formaldehyde dehydrogenase); series mostly up to 57.1 µM; activity change, negative = inhibition: at the top concentration", "values": [
      {"compound": "CNC(=O)c1sc(-c2ccccn2)nc1C", "Potency": "inconclusive: 39.8 µM [inhibitor, single point]"},
      {"compound": "COc1cccc(-c2nc(N3CCN(Cc4ccccc4)CC3)c3ccccc3n2)c1O", "Potency": "inconclusive: 31.6 µM [inhibitor, partial curve]"},
      {"compound": "Cc1ccc(-c2nn(-c3ccccc3)cc2/C=N/NC(=O)c2ccc3c(c2)OCO3)cc1", "Potency": "inconclusive: 39.8 µM [inhibitor, single point]"},
      {"compound": "COC(=O)c1cc2c(=O)n3cccc(C)c3nc2n(Cc2cccnc2)c1=N", "Potency": "inconclusive: 28.2 µM [inhibitor, partial curve]"},
      {"compound": "Nc1c2c(nc3ccc(Br)cc13)N(c1ccccc1)CC2", "Potency": "inconclusive: 31.6 µM [inhibitor, single point]"},
      {"compound": "CC1CCCCN1C(=O)/C(=C\\c1ccccc1)c1ccccc1", "note": "(centres undefined)", "activity change, negative = inhibition": "inactive: 1.19%"},
      {"compound": "O=Nc1ccc(O)c2ncccc12", "Potency": "active: 25.1 µM"},
      {"compound": "O=Cc1ccc(-c2ccc(F)cc2)o1", "Potency": "inconclusive: 39.8 µM [inhibitor, single point]"},
      {"compound": "O=C1OC(c2ccccc2)c2ccc3ccccc3c21", "note": "(centres undefined)", "Potency": "inconclusive: 35.5 µM [inhibitor, single point]"},
      {"compound": "O=S(=O)(c1ccc(OCC(O)CN2CCN(c3ccccc3O)CC2)cc1)N1CCOCC1", "note": "(centres undefined)", "Potency": "inconclusive: 20 µM [inhibitor, single point]"},
      {"compound": "CC1=CC(c2ccccc2)NC(=S)N1", "note": "(centres undefined)", "activity change, negative = inhibition": "inactive: -1.87%"},
      {"compound": "COCCCNC(=O)Cn1nnc(-c2ccc(NC(=O)c3ccccc3OC)cc2)n1", "Potency": "inconclusive: 35.5 µM [inhibitor, single point]"},
      {"compound": "COC(=O)Cn1c(=NC(=O)c2cccc(OC)c2)sc2cc(OC)ccc21", "Potency": "inconclusive: 31.6 µM [inhibitor, partial curve]"},
      {"compound": "Cc1ccc2c(O)c(C)c(=O)[nH]c2n1", "Potency": "inconclusive: 3.98 µM [inhibitor, single point]"},
      {"compound": "CCN(CC)c1ccc(C2CC(=O)Nc3cc(OC)c(OC)cc32)cc1", "note": "(centres undefined)", "activity change, negative = inhibition": "inactive: 5.93%"},
      {"compound": "COc1ccc(OCCNC2CCCC2)cc1", "Potency": "inconclusive: 6.31 µM [inhibitor, partial curve]"},
      {"compound": "COc1ccc(-c2cc([C@H]3[C@H]4C=CC[C@@H](C)[C@@H]4C(=O)N3Cc3ccccc3)ccc2F)cc1OC", "Potency": "inconclusive: 35.5 µM [inhibitor, single point]"},
      {"compound": "COc1ccccc1-c1ccc(/C=N/O)o1", "Potency": "inconclusive: 35.5 µM [inhibitor, single point]"},
      {"compound": "COc1cccc(C=Nc2cccnc2)c1O", "Potency": "inconclusive: 39.8 µM [inhibitor, single point]"},
      {"compound": "CCOC(=O)Cn1c(=O)c(C#N)cn(C(C)C)c1=O", "Potency": "inconclusive: 35.5 µM [inhibitor, single point]"},
      {"compound": "COc1ccc(N(CCC#N)C(=O)/C(C#N)=C/c2cccs2)cc1", "activity change, negative = inhibition": "inactive: -2.36%"},
      {"compound": "CNCCCC1Sc2ccccc2Oc2ccccc21", "note": "(centres undefined)", "Potency": "inconclusive: 22.4 µM [inhibitor, single point]"},
      {"compound": "CCOC(=O)c1sc(NC(=O)Nc2cccc(Cl)c2)cc1C", "Potency": "inconclusive: 28.2 µM [inhibitor, single point]"},
      {"compound": "O=c1cc(-c2ccccc2Cl)oc2c(NS(=O)(=O)c3ccccc3OC(F)(F)F)ccc(O)c12", "Potency": "inconclusive: 35.5 µM [inhibitor, single point]"},
      {"compound": "CCNC(=S)N1CCN(c2cccc(C(F)(F)F)c2)CC1", "activity change, negative = inhibition": "inactive: -8.73%"},
      {"compound": "COc1ccc(NC(=O)c2cc(S(=O)(=O)N(C)C)ccc2N2CCCC2)cc1Cl", "Potency": "inconclusive: 39.8 µM [inhibitor, single point]"},
      {"compound": "Cc1[nH]n(-c2cccc(Cl)c2)c(=O)c1/C=N/n1c(C)nc2ccccc2c1=O", "Potency": "inconclusive: 31.6 µM [inhibitor, single point]"},
      {"compound": "COc1cc(OC)cc(-c2cc3nc4c(c(N5CCN(c6ncccn6)CC5)n3n2)CCCC4)c1", "Potency": "inconclusive: 15.8 µM [inhibitor, partial curve]"},
      {"compound": "COc1ccc(C)cc1N=Nc1ccc(O)c2ncccc12", "Potency": "active: 25.1 µM"},
      {"compound": "CCOC(=O)c1ccc(NC(=O)c2nc[nH]c2C(=O)N[C@@H](CC(C)C)C(=O)OC(C)(C)C)cc1", "Potency": "inconclusive: 35.5 µM [inhibitor, single point]"},
      {"compound": "CC1CCCC/C1=N\\NC(=S)NCCc1ccccc1", "note": "(centres undefined)", "activity change, negative = inhibition": "inactive: 5.2%"},
      {"compound": "CCn1c2ccccc2c2nnc(SCC(=O)Nc3c(C)n(C)n(-c4ccccc4)c3=O)nc21", "activity change, negative = inhibition": "inactive: -2.95%"},
      {"compound": "O=C1OC(c2ccccc2)=C/C1=C\\N1CCOCC1", "activity change, negative = inhibition": "inactive: 2.04%"},
      {"compound": "CCOC(=O)c1cnn2c(N)c(C#N)nnc12", "Potency": "inconclusive: 39.8 µM [inhibitor, single point]"},
      {"compound": "Cc1ccc(S(=O)(=O)N2CCN(Cc3ccccc3C(F)(F)F)CC2)cc1", "activity change, negative = inhibition": "inactive: -26.2%"},
      {"compound": "COc1cccc(COC(=O)c2nn(-c3ccccc3)nc2N)c1", "Potency": "inconclusive: 31.6 µM [inhibitor, partial curve]"},
      {"compound": "COC(=O)[C@@]1(Cc2ccccc2)[C@H]2c3cc(C(=O)N4CCCC4)[nH]c3C[C@H]2CN1C(=O)c1ccccc1", "activity change, negative = inhibition": "inactive: 22.3%"},
      {"compound": "CC(=O)O[C@@H](C)C#C[Si](C)(C)c1ccccc1", "activity change, negative = inhibition": "inactive: 0.848%"},
      {"compound": "CC(C)n1c(C(F)(F)F)nc2cc(C(=O)N3CCCCC3)ccc21", "activity change, negative = inhibition": "inactive: -3.43%"},
      {"compound": "COc1ccc2c(c1)Cc1sc(NC(=O)c3ccccc3)nc1-2", "Potency": "inconclusive: 28.2 µM [inhibitor, single point]"},
      {"compound": "CC(=O)Nc1cccc(Oc2cc(C#N)c(C#N)cc2N2CCCCCC2)c1", "Potency": "inconclusive: 35.5 µM [inhibitor, single point]"},
      {"compound": "CCc1nnc(NC(=O)Cn2c(=O)oc3ccccc32)s1", "activity change, negative = inhibition": "inactive: 8.29%"},
      {"compound": "Cc1cc(/C=C(\\C#N)C(=O)NCc2cccs2)c(C)n1-c1ccccc1F", "Potency": "inconclusive: 14.1 µM [inhibitor, partial curve, poor fit]"},
      {"compound": "COc1ccc(C(CC(=O)O)NC(=O)COc2ccccc2)cc1OC", "note": "(centres undefined)", "activity change, negative = inhibition": "inactive: 2.99%"},
      {"compound": "C1=C(CCNc2nnnn2-c2ccccc2)CCCC1", "activity change, negative = inhibition": "inactive: 0.882%"},
      {"compound": "CCC(C)C(=O)Nc1nc(C)c(-c2csc(Nc3ccccc3OC)n2)s1", "note": "(centres undefined)", "activity change, negative = inhibition": "inactive: -27.2%"},
      {"compound": "Nc1ccccc1C(=O)N/N=C1\\C2CN3CCN(C2)CC1(c1ccccc1)C3", "Potency": "inconclusive: 39.8 µM [inhibitor, single point]"},
      {"compound": "CCOC(=O)c1c(NC(=O)CN2CCN(C(=O)c3ccco3)CC2)sc2c1CCCC2", "Potency": "inconclusive: 39.8 µM [inhibitor, single point]"},
      {"compound": "CC(C)(C)OC(=O)Cn1c(=O)cnc2ccccc21", "Potency": "inconclusive: 35.5 µM [inhibitor, single point]"},
      {"compound": "Cc1cccc(NC(=O)CSc2nnc(-c3ccccc3C)o2)c1", "activity change, negative = inhibition": "inactive: 1.86%"},
      {"compound": "Cc1nc(Nc2ccc(S(N)(=O)=O)cc2)sc1C(=O)Nc1ccccc1", "Potency": "inconclusive: 39.8 µM [inhibitor, single point]"},
      {"compound": "COc1ccc2nc(NC(=O)c3ccc(-n4nc(C)cc4C)cc3)sc2c1", "Potency": "inconclusive: 25.1 µM [inhibitor, partial curve]"},
      {"compound": "CC1CCN(CCCNC(=O)c2ccc3c(=O)n(Cc4ccc(Cl)cc4)c(=S)[nH]c3c2)CC1", "Potency": "inconclusive: 39.8 µM [inhibitor, single point]"},
      {"compound": "COc1ccccc1-c1cc(C(F)(F)F)nc(N2CCOCC2)n1", "Potency": "inconclusive: 39.8 µM [inhibitor, single point]"},
      {"compound": "C/C(=N\\NC(=O)c1ccc(NS(=O)(=O)c2cccs2)cc1)c1ccc(O)cc1O", "Potency": "active: 12.6 µM"},
      {"compound": "Cc1cc(N2CCCC2)nc(SCC(=O)c2ccccc2)n1", "activity change, negative = inhibition": "inactive: 9.14%"},
      {"compound": "COCCCn1c(C)c(C(C)=O)cc(NC(=O)c2ccccc2)c1=O", "activity change, negative = inhibition": "inactive: -6.45%"},
      {"compound": "Cc1ccc(NC(=O)CCN2CCN(C/C=C/c3ccccc3)CC2)cc1", "activity change, negative = inhibition": "inactive: 13.6%"},
      {"compound": "CCO/C=C1/C(=O)N(c2ccc(OC)cc2)C(=O)c2ccccc21", "Potency": "inconclusive: 8.91 µM [inhibitor, partial curve]"},
      {"compound": "O=C1C2C3C=CC(CNS(=O)(=O)c4ccccc4[N+](=O)[O-])(O3)C2C(=O)N1c1ccccc1", "note": "(centres undefined)", "activity change, negative = inhibition": "inactive: 2.37%"},
      {"compound": "Cc1cc(NC(=O)c2cc(-c3ccncc3)nc3c(C)cccc23)no1", "Potency": "inconclusive: 28.2 µM [inhibitor, partial curve]"},
      {"compound": "O=c1c2ccccc2nc(COc2ccccc2)n1/N=C/c1ccc(O)cc1O", "Potency": "inconclusive: 35.5 µM [inhibitor, single point]"},
      {"compound": "CN(C)c1ccc(C(=O)OCC(=O)NC2CCCCC2)cc1", "Potency": "inconclusive: 39.8 µM [inhibitor, single point]"},
      {"compound": "O=C(OCc1ccc2c(c1)OCO2)c1cccc(S(=O)(=O)N2CCCCC2)c1", "activity change, negative = inhibition": "inactive: -4.4%"},
      {"compound": "Cc1ccc2oc(=O)c3cc(C(=O)N4CCN(C(=O)c5ccco5)CC4)sc3c2c1", "Potency": "inconclusive: 35.5 µM [inhibitor, single point]"},
      {"compound": "Cc1ccc2c(c1)c1c(n2C)-c2[nH]ncc2CC1", "Potency": "inconclusive: 28.2 µM [inhibitor, partial curve]"},
      {"compound": "COc1ccc(CC(=O)NCc2ccc3c(c2)cc(C)n3C)cc1", "activity change, negative = inhibition": "inactive: -6.48%"},
      {"compound": "Cc1ccc(CCNC(=O)CN(C)S(=O)(=O)c2ccc3c(c2)n(C)c(=O)c(=O)n3C)cc1", "Potency": "inconclusive: 39.8 µM [inhibitor, single point]"},
      {"compound": "Cc1cccc(C)c1Nc1nnc(SCc2nc3ccccc3c(=O)[nH]2)s1", "activity change, negative = inhibition": "inactive: 8.21%"},
      {"compound": "O=C1CCCC2=C1C(c1ccccc1)NC(=S)N2", "note": "(centres undefined)", "activity change, negative = inhibition": "inactive: -8.15%"},
      {"compound": "Cc1cccnc1CCNC(=O)CC1C(=O)NCCN1CC1CCCCC1", "note": "(centres undefined)", "Potency": "inconclusive: 28.2 µM [inhibitor, single point]"},
      {"compound": "COc1ccc(-c2nc3c(n2O)CCC/C3=N\\O)cc1", "Potency": "inconclusive: 31.6 µM [inhibitor, partial curve]"},
      {"compound": "CCc1ccc[n+](-c2nc([O-])sc2C=O)c1", "activity change, negative = inhibition": "inactive: 1.47%"},
      {"compound": "CCOC(=O)/C(=N/Nc1ccccc1OC)N1CCCc2ccccc21", "activity change, negative = inhibition": "inactive: -1.17%"}
    ]}
  ]
}
